The source of these data is PMC6778083 (Nature Communications, 2019).

The term stoichiometry N denotes the number of molecules, sites or subunits per partner or assembly.

Where a chain is given by its changes, count along the chain named. Names may count otherwise.

The series “AUC” concerns the molecule itself. The series can be described thus: AUC.
The series “SEC-SAXS” deals with the molecule itself. The series can be described thus: SEC-SAXS. A general note: In gel filtration, larger molecules generally elute earlier.

B1: AdhE F670A mutant, Escherichia coli K12 (enzyme, UniProt P0A9Q7 1-891, looked up)
chain: MAVTNVAELNALVERVKKAQREYASFTQEQVDKIFRAAALAAADARIPLAKMAVAESGMGIVEDKVIKNHFASEYIYNAYKDEKTCGVLSEDDTFGTITIAEPIGIICGIVPTTNPTSTAIFKSLISLKTRNAIIFSPHPRAKDATNKAADIVLQAAIAAGAPKDLIGWIDQPSVELSNALMHHPDINLILATGGPGMVKAAYSSGKPAIGVGAGNTPVVIDETADIKRAVASVLMSKTFDNGVICASEQSVVVVDSVYDAVRERFATHGGYLLQGKELKAVQDVILKNGALNAAIVGQPAYKIAELAGFSVPENTKILIGEVTVVDESEPFAHEKLSPTLAMYRAKDFEDAVEKAEKLVAMGGIGHTSCLYTDQDNQPARVSYFGQKMKTARILINTPASQGGIGDLYNFKLAPSLTLGCGSWGGNSISENVGPKHLINKKTVAKRAENMLWHKLPKSIYFRRGSLPIALDEVITDGHKRALIVTDRFLFNNGYADQITSVLKAAGVETEVFFEVEADPTLSIVRKGAELANSFKPDVIIALGGGSPMDAAKIMWVMYEHPETHFEELALRFMDIRKRIYKFPKMGVKAKMIAVTTTSGTGSEVTPFAVVTDDATGQKYPLADYALTPDMAIVDANLVMDMPKSLCAFGGLDAVTHAMEAYVSVLASEASDGQALQALKLLKEYLPASYHEGSKNPVARERVHSAATIAGIAFANAFLGVCHSMAHKLGSQFHIPHGLANALLICNVIRYNANDNPTKQTAFSQYDRPQARRRYAEIADHLGLSAPGDRTAAKIEKLLAWLETLKAELGIPKSIREAGVQEADFLANVDKLSEDAFDDQCTGANPRYPLISELKQILLDTYYGRDYVEGETAAKKEAAPAKAEKKAKKSA
For B1, in “AUC”, the binding result is “binds”.

B2: AdhE F670V mutant, Escherichia coli K12 (enzyme, UniProt P0A9Q7 1-891, looked up)
chain: B1 chain with A670V
B2: the binding result in “AUC” was “binds”.

B3: AdhE F670E mutant, Escherichia coli K12 (enzyme, UniProt P0A9Q7 1-891, looked up)
chain: B1 chain with A670E
Consider B3, for which, in the series “SEC-SAXS”, the “stoichiometry N” value was found to be 2.
